# In the supplement of paper PMC10037445:
# ± gives the standard deviation of the averaged measurements. The full ranking holds about 2,900 compounds; the median of “IRF Lucia reporter activity, fold change vs agonist alone” is about 0.9, and the highest 2% start at about 2.8. The list shows a part of the results.
# Legend:
# RAW-Dual [1] = experiment: IRF Lucia reporter activity, fold change vs agonist alone; cytotoxicity flag (confluency mask): not cytotoxic; higher = enhanced IRF activity
# How it was run: (§1)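 Library stock was pin-tooled at 50 nL into 384-well plates of RAW-Dual macrophages (50,000 cells/well, DMEM), followed 1 h later by a PRR agonist, and the cells were kept at 37 °C, 5% CO2. Supernatant collected after 20 hours was read for IRF by QuantiLuc luminescence and for NF-κB by QuantiBlue absorbance at 620 nm. Reporter activity is fold change over agonist-alone wells, and a well counted as cytotoxic when its IncuCyte confluency was below 70% of agonist controls in both mask sets.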
# RAW-Dual [2] = experiment: IRF Lucia reporter activity, fold change vs agonist alone; higher = enhanced IRF activity; conditions: agonist: MPLA (TLR4) […]
# How it was run: as §1
# RAW-Dual [3] = experiment: IRF Lucia reporter activity, fold change vs agonist alone; cytotoxicity flag (confluency mask): cytotoxic (confluency <70% of control); higher = enhanced IRF activity
# How it was run: as §1
# [4] = agonist: 3'3'-cGAMP (STING) 10 ug/mL
# [5] = library stock concentration (final ~1000-fold dilution): 10 mM, cytotoxicity flag (confluency mask): not cytotoxic
# [6] = library stock concentration (final ~1000-fold dilution): 10 mM, cytotoxicity flag (confluency mask): cytotoxic (confluency <70% of control)
smiles,measurement,setting,value
COc1cc2c(cc1OC)CN(C(=O)/C=C/c1c(-c3ccccc3)n(C)c3ncccc13)CC2.Cl (library stock concentration (final ~1000-fold dilution): 10 mM),IRF Lucia reporter activity,RAW-Dual [1]; [4],0.886
same,IRF Lucia reporter activity,RAW-Dual [1]; agonist: LPS (TLR4) 0.1 ug/mL,1.07
CC(C)Cc1ccc(C(C)C(=O)O)cc1.NCCCCC(N)C(=O)O (stereo unspecified),IRF Lucia reporter activity,"RAW-Dual [2]; library stock concentration (final ~1000-fold dilution): 10 mM water, cytotoxicity flag (confluency mask): not cytotoxic",1.33
CC(C)Cc1ccc(C(C)C(=O)O)cc1.NCCCCC(N)C(=O)O (stereo unspecified) (library stock concentration (final ~1000-fold dilution): 10 mM water),IRF Lucia reporter activity,RAW-Dual [1]; [4],1.29
same,IRF Lucia reporter activity,RAW-Dual [1]; agonist: LPS (TLR4) 0.1 ug/mL,0.813
CC1(C)OCCn2c1nc1c(N3CCOCC3)nc(-c3cnc(N)nc3)nc12 (library stock concentration (final ~1000-fold dilution): 10 mM),IRF Lucia reporter activity,RAW-Dual [1]; [4],0.579
same,IRF Lucia reporter activity,RAW-Dual [1]; agonist: LPS (TLR4) 0.1 ug/mL,0.925
COC1=CC(c2cc3ccccc3[nH]2)=N/C1=C\c1[nH]c(C)cc1C.CS(=O)(=O)O (library stock concentration (final ~1000-fold dilution): 10 mM),IRF Lucia reporter activity,RAW-Dual [1]; [4],0.38
same,IRF Lucia reporter activity,RAW-Dual [1]; agonist: LPS (TLR4) 0.1 ug/mL,3.87
COC1=CC(c2cc3ccccc3[nH]2)=N/C1=C\c1[nH]c(C)cc1C.CS(=O)(=O)O,IRF Lucia reporter activity,RAW-Dual [2]; [5],5.45
CS(=O)(=O)O.O=C(OC1CC2CC3CC(C1)N2CC3=O)c1c[nH]c2ccccc12 (stereo unspecified),IRF Lucia reporter activity,RAW-Dual [2]; [5],1.03
CS(=O)(=O)O.O=C(OC1CC2CC3CC(C1)N2CC3=O)c1c[nH]c2ccccc12 (stereo unspecified) (library stock concentration (final ~1000-fold dilution): 10 mM),IRF Lucia reporter activity,RAW-Dual [1]; [4],1.02
same,IRF Lucia reporter activity,RAW-Dual [1]; agonist: LPS (TLR4) 0.1 ug/mL,0.975
OC1(c2ccc(Cl)c(C(F)(F)F)c2)CCN(CCCC(c2ccc(F)cc2)c2ccc(F)cc2)CC1,IRF Lucia reporter activity,RAW-Dual [2]; [6],0.0399
OC1(c2ccc(Cl)c(C(F)(F)F)c2)CCN(CCCC(c2ccc(F)cc2)c2ccc(F)cc2)CC1 (library stock concentration (final ~1000-fold dilution): 10 mM),IRF Lucia reporter activity,RAW-Dual [3]; [4],0.0211
same,IRF Lucia reporter activity,RAW-Dual [3]; agonist: LPS (TLR4) 0.1 ug/mL,0.0256
O=C(Cc1ccccc1)Nc1nnc(NC2CCN(c3nnc(NC(=O)Cc4ccccc4)s3)CC2)s1 (library stock concentration (final ~1000-fold dilution): 10 mM),IRF Lucia reporter activity,RAW-Dual [1]; [4],0.884
same,IRF Lucia reporter activity,RAW-Dual [1]; agonist: LPS (TLR4) 0.1 ug/mL,1.04
COc1cc(O)cc(O)c1C(=O)/C=C/c1ccccc1 (library stock concentration (final ~1000-fold dilution): 10 mM),IRF Lucia reporter activity,RAW-Dual [3]; [4],0.0503 ± 0.025
same,IRF Lucia reporter activity,RAW-Dual [3]; agonist: LPS (TLR4) 0.1 ug/mL,0.256 ± 0.099
COc1cc(O)cc(O)c1C(=O)/C=C/c1ccccc1,IRF Lucia reporter activity,RAW-Dual [2]; [6],0.675 ± 0.41
Cc1cnc(NC(=O)C2=C(O)c3ccccc3S(=O)(=O)N2C)s1 (library stock concentration (final ~1000-fold dilution): 10 mM),IRF Lucia reporter activity,RAW-Dual [1]; [4],0.955
same,IRF Lucia reporter activity,RAW-Dual [1]; agonist: LPS (TLR4) 0.1 ug/mL,1.03
Cc1cnc(NC(=O)C2=C(O)c3ccccc3S(=O)(=O)N2C)s1,IRF Lucia reporter activity,RAW-Dual [2]; [5],0.731
CNCCC(Oc1cccc2ccccc12)c1cccs1 (stereo unspecified) (library stock concentration (final ~1000-fold dilution): 10 mM),IRF Lucia reporter activity,RAW-Dual [3]; [4],0.631
same,IRF Lucia reporter activity,RAW-Dual [3]; agonist: LPS (TLR4) 0.1 ug/mL,0.398
CNCCC(Oc1cccc2ccccc12)c1cccs1 (stereo unspecified),IRF Lucia reporter activity,RAW-Dual [2]; [6],0.811
O=C(O)CCCc1ccccc1,IRF Lucia reporter activity,RAW-Dual [2]; [5],1.1
O=C(O)CCCc1ccccc1 (library stock concentration (final ~1000-fold dilution): 10 mM),IRF Lucia reporter activity,RAW-Dual [1]; [4],1.07
same,IRF Lucia reporter activity,RAW-Dual [1]; agonist: LPS (TLR4) 0.1 ug/mL,1.25
Cn1cc(-c2ccc(F)c(C(F)(F)F)c2)nc1C1CCN(c2ncnc3[nH]ncc23)CC1 (library stock concentration (final ~1000-fold dilution): 2 mM),IRF Lucia reporter activity,RAW-Dual [1]; [4],0.971
same,IRF Lucia reporter activity,RAW-Dual [1]; agonist: LPS (TLR4) 0.1 ug/mL,0.96
CNCCN1CCC(OCc2ccccc2)CC1.Cl.Cl (library stock concentration (final ~1000-fold dilution): 10 mM),IRF Lucia reporter activity,RAW-Dual [1]; [4],0.445
same,IRF Lucia reporter activity,RAW-Dual [1]; agonist: LPS (TLR4) 0.1 ug/mL,1
CC(C)(Cc1ccc2ccccc2c1)NCC(O)COc1cccc(Cl)c1C#N (stereo unspecified) (library stock concentration (final ~1000-fold dilution): 10 mM),IRF Lucia reporter activity,RAW-Dual [1]; [4],1.1
same,IRF Lucia reporter activity,RAW-Dual [1]; agonist: LPS (TLR4) 0.1 ug/mL,0.0451
CC(C)(Cc1ccc2ccccc2c1)NCC(O)COc1cccc(Cl)c1C#N (stereo unspecified),IRF Lucia reporter activity,RAW-Dual [2]; [5],1.06
O=C(c1cccc(Cl)c1F)N1CCN(Cc2cccc(Nc3nccs3)n2)CC1 (library stock concentration (final ~1000-fold dilution): 10 mM),IRF Lucia reporter activity,RAW-Dual [1]; [4],0.249
same,IRF Lucia reporter activity,RAW-Dual [1]; agonist: LPS (TLR4) 0.1 ug/mL,0.813
O=C(c1cccc(Cl)c1F)N1CCN(Cc2cccc(Nc3nccs3)n2)CC1,IRF Lucia reporter activity,RAW-Dual [2]; [5],0.973
Oc1cc(O)c2c(c1)OC(c1ccc(O)c(O)c1)C(O)C2c1c(O)cc(O)c2c1OC(c1ccc(O)c(O)c1)C(O)C2 (stereo unspecified) (library stock concentration (final ~1000-fold dilution): 1 mM),IRF Lucia reporter activity,RAW-Dual [1]; [4],0.789
same,IRF Lucia reporter activity,RAW-Dual [1]; agonist: LPS (TLR4) 0.1 ug/mL,0.717
CC1OC(OC2CCC3(C)C(CCC4(C)C3C=CC35OCC6(CCC(C)(C)CC63)C(O)CC45C)C2(C)CO)C(O)C(OC2OC(CO)C(O)C(O)C2O)C1O (stereo unspecified),IRF Lucia reporter activity,RAW-Dual [2]; [6],0.0883
CC1OC(OC2CCC3(C)C(CCC4(C)C3C=CC35OCC6(CCC(C)(C)CC63)C(O)CC45C)C2(C)CO)C(O)C(OC2OC(CO)C(O)C(O)C2O)C1O (stereo unspecified) (library stock concentration (final ~1000-fold dilution): 10 mM),IRF Lucia reporter activity,RAW-Dual [3]; [4],0.0904
same,IRF Lucia reporter activity,RAW-Dual [3]; agonist: LPS (TLR4) 0.1 ug/mL,0.112
CCOC(=O)C=P(c1ccccc1)(c1ccccc1)c1ccccc1 (library stock concentration (final ~1000-fold dilution): 10 mM),IRF Lucia reporter activity,RAW-Dual [1]; [4],0.979
same,IRF Lucia reporter activity,RAW-Dual [1]; agonist: LPS (TLR4) 0.1 ug/mL,1.3
CCOC(=O)C=P(c1ccccc1)(c1ccccc1)c1ccccc1,IRF Lucia reporter activity,RAW-Dual [2]; [5],1.08
COc1cccc(NC(=O)/C=C/c2ccc(Cl)cc2)c1 (library stock concentration (final ~1000-fold dilution): 10 mM),IRF Lucia reporter activity,RAW-Dual [1]; [4],0.863
same,IRF Lucia reporter activity,RAW-Dual [1]; agonist: LPS (TLR4) 0.1 ug/mL,0.892
COc1cc(OC)c2c(=O)[nH]c(-c3cc(C)c(OCCO)c(C)c3)nc2c1,IRF Lucia reporter activity,RAW-Dual [2]; [5],0.582
COc1cc(OC)c2c(=O)[nH]c(-c3cc(C)c(OCCO)c(C)c3)nc2c1 (library stock concentration (final ~1000-fold dilution): 10 mM),IRF Lucia reporter activity,RAW-Dual [1]; [4],0.492
same,IRF Lucia reporter activity,RAW-Dual [1]; agonist: LPS (TLR4) 0.1 ug/mL,0.392
Cc1ccc(C(=O)Nc2ccc(CN3CCN(C)CC3)c(C(F)(F)F)c2)cc1C#Cc1cnc2cccnn12,IRF Lucia reporter activity,RAW-Dual [2]; [6],0.0224
Cc1ccc(C(=O)Nc2ccc(CN3CCN(C)CC3)c(C(F)(F)F)c2)cc1C#Cc1cnc2cccnn12 (library stock concentration (final ~1000-fold dilution): 10 mM),IRF Lucia reporter activity,RAW-Dual [3]; [4],0.0706
same,IRF Lucia reporter activity,RAW-Dual [3]; agonist: LPS (TLR4) 0.1 ug/mL,0.0229
